Laboratory results: PubChem BioAssay (Tox21)
Values joined by “and” are separate entries in the source; they are usually repeats but may differ in a detail not shown here. Identical values can stand only once. The shares of active, inactive and inconclusive entries below differ from those in the screen. No potency is given beside an inconclusive call; the fits are too rough. Active and inactive are the calls of the source. Calls follow the shape of the dose curve; as a rule, active = well fitted cell-killing curve with a large enough effect in the repeat runs; inconclusive = weak or mixed curves, or effect the other way; inactive = flat fitted curve, though single readings scatter.
% is scaled to controls: 0 for no effect and ±100 for the full control effect; potency is read from the fitted curve at half-maximal effect; tags tell the direction and shape of the fitted curve.

Assay: qHTS RealTime-Glo MT Cell Viability Assay in HEK293 cells - 40 hour (AID 1224874); also: nearly all actives have a fitted effect of over 50% in size
Settings: RealTime-Glo luminescence; max response: active compounds read low
Procedure, shortened: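 Real-time viability in HEK293: signal arises when living cells convert a prosubstrate for NanoLuc in the medium, so luminescence tracks viable cell number. Compound (23 nL, DMSO) added 5 h post-seeding; kinetic reads at 0–40 h, 37 C.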
In the case of `CC1=CCC(C(C)C)C=C1` (stereo not given), the Potency is reported as inconclusive [cytotoxic, full curve]. For `O=C=NC1CCC(CC2CCC(N=C=O)CC2)CC1` (stereo not given), the Potency was inconclusive [cytotoxic, partial curve]. In the case of `CC(C)(O)Cc1ccccc1`, the Potency is reported as inconclusive [cytotoxic, single point]. For `CS(C)=O`, the Potency was inconclusive [rising, single point]. For `CCNc1cccc(C)c1`, the max response was inactive: -1.66% and inactive: 8.48%. For `Cc1ccc2ncccc2c1`, the max response was inactive: 0.634% and inactive: 3.71%. In the case of `OCCc1ccccn1`, the max response is reported as inactive: 3.13%. With `CSc1ccc(O)cc1C` the Potency was inconclusive [cytotoxic, partial curve, poor fit]. For `CCOC(=O)CCC(C)=O`, the max response was inactive: -9.25%. For `C=CC(=O)NCOCCCC`, the max response was inactive: 1.11% and inactive: 4.5%. In the case of `Cc1nc2ccccc2n1Cc1ccc(Cl)cc1`, the Potency is reported as active: 1.69 µM. For `CC(C)(C)C(=O)C(Oc1ccc(Cl)cc1)n1ccnc1` (stereo not given), the Potency was inconclusive [cytotoxic, partial curve, poor fit]. For `CC(=O)C(=O)O`, the max response was inactive: -1.91% and inactive: -9.51% and inactive: -2.01%. With `Nc1nc(CC(=O)O)cs1` the Potency was inconclusive [cytotoxic, partial curve]. In the case of `CC(=O)OCC(=O)[C@@]12OC(C)(C)O[C@@H]1C[C@H]1[C@@H]3C[C@H](F)C4=CC(=O)C=C[C@]4(C)[C@@]3(F)[C@@H](O)C[C@@]12C`, the Potency is reported as inconclusive [cytotoxic, partial curve, poor fit].
